Certain results were filed several times, with different values. Only these are listed. There may be further records. The values listed for one entry repeat one measurement in other runs, samples, wells, individuals or studies. Additions like (4×) stand for listed records that agree.
Test system: K24384-001-R-PDC complex spheroid viability
Test: Anticancer human tumor K24384-001-R-PDC patient-derived pancreatic adenocarcinoma cell line growth inhibition
Conditions: stronger effect = lower value
Source text: Multicellular complex tumor spheroid response to LSD1 Inhibitor Iadademstat in combination with a variety of drugs and investigational agents in selected tumor cell lines
The current study was undertaken to assess response to LSD1 inhibitors in combination with standard-of-care drugs and investigational agents in solid tumor complex spheroid models as well as in the K-562 leukemia. Complex spheroids include a stromal component modeled by human endothelial cells (HUVEC) and fibroblasts modeled by human mesenchymal stem cells (MSCs). The concentration ranges selected for each drug and investigational agent were based upon clinically achievable concentrations if the clinical Cmax of the agent was known.
Compounds. The drugs and investigational agents used in this study are listed on Table 1. All of the agents used, including staurosporine (NSC755774) and gemcitabine (NSC613327), were obtained from the Developmental Therapeutics Program, NCI. FDA-approved anticancer drugs are available from the NCI at http://dtp.nci.nih.gov/branches/dscb/oncology_drugset_explanation.html. Drugs and investigational agents were >95% pure by proton nuclear magnetic resonance (NMR) and liquid chromatography/mass spectrometry (LC/MS). Stock solutions were prepared at 400x in DMSO, stored at -70 degrees C, and diluted in fresh medium prior to their use. The final concentration of DMSO in cell culture wells never exceeded 0.25% (v/v). The FDA-approved anticancer drug set is available from the Developmental Therapeutics Program at https://dtp.cancer.gov/organization/dscb/obtaining/available_plates.htm. All drugs and investigational agents were tested over a range starting from a high concentration at or near the clinical Cmax and decreasing in half-log increments. If the clinical Cmax for an agent had not been determined, the highest concentration tested was 10 microM.
Cell Lines. The patient-derived cancer cell (PDC) lines: 292921-168-R-J2-PDC, K24384-001-R-PDC, and 521955-158-R2-J5-PDC pancreatic carcinomas, 556581-035-R-J1 ovarian carcinoma, 324938-238-R-J1-PDC, 855422-203-R-J1-PDC and 883617-216-R-J1-PDC urothelial bladder carcinomas, 743489-274-T-PDC renal cell carcinoma, 138582-R-J1 Merkel cell tumor, K60290-347-R-J1 and K57222-313-R-J1-PDC glioblastomas, 653999-131-R-J2-PDC, LG0703-F948-PDC, and 349418-098-R-PDC non-small cell lung carcinomas, 885512-296-R-J2-PDC, 171881-019-R-J1-PDC breast carcinomas and 186277-243-T-J2-PDC and 233499-124-R-J2-PDC colon carcinomas were obtained from the NCI Patient-Derived Models Repository (PDMR, https://pdmr.cancer.gov). The established cell lines NCI/ADR-RES (RRID:CVCL_14520 and OVCAR-5 (RRID:CVCL_1628) ovarian carcinomas, 786-O (RRID:CVCL_1051) and A498 (RRID:CVCL_A498) renal cell carcinoma, NCI-H211 (ATCC, cat. CRL-5824; RRID:CVCL_1529), NCI-H196 (ATCC, cat. CRL-5823, RRID:CVCL_1509), SW 1271 (ATCC, cat. CRL-2177, RRID:CVCL_1716) and NCI-H1876 (ATCC, cat. CRL-5902, RRID:CVCL_1503) small cell lung carcinomas, MDA-MB-231 (RRID:CVCL_0062) and MDA-MB-468 (RRID:CVCL_0419)breast carcinomas (10-12). Pooled donor human umbilical vein endothelial cells (HUVEC, Lonza, cat. CC-2519) and human mesenchymal stem cells (hMSC, Lonza, cat. PT-2501) were purchased from Lonza (Walkersville, MD).
Cell Culture. All cells were maintained in an incubator at 37 degrees C and 5% CO2 with 95% humidity. The PDC lines were cultured according to standard operating procedures established by the NCI PDMR (https://pdmr.cancer.gov). Briefly all PDCs were thawed and cultured in Matrigel-coated flasks prepared with a working solution of 1X Ham's F-12 nutrient mix, without supplementation (Invitrogen, Waltham, MA, cat. 11765054), 100 U/mL penicillin-streptomycin (Invitrogen, cat. 15140122), and 2.5% Matrigel (Corning Inc., Corning, NY, cat. 354248) for the first three passages. […]
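Note: spheroids exposed to agents for seven days before luminescence viability reading; 100% = DMSO vehicle control viability.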

Row | SMILES | viability, T/C (compound alone 0.1 µM) | viability, T/C (compound alone 1 µM) | viability, T/C (compound alone 3.16 µM) | viability, T/C (compound alone 10 µM) | viability, T/C (compound alone 0.316 µM)
1 | NC1CCC(NC2CC2c2ccccc2)CC1 (stereo not drawn) | 86.5, 85.6, 99.8, 87, 94.8, 74.2, 78.7, 80.5, 81.2, 77.9, 92.1, 84.6, 77.5, 89.4, 78.8, 98.1, 85.9, 89.8, 90.4, 87.9, 85.3, 84.8, 93.1, 80.4, 72.2% | 70.8, 83.8, 79.8, 81, 96, 76.3, 88.2, 89.6, 85.2, 76.7, 78, 83.2, 69.1, 70.7, 71.8, 89.3, 81.3, 101, 69.6, 79.1, 81.2, 63.9, 75.4, 82.6, 78.2% | 68.6, 78.2, 96.3, 81 (2×), 81.3, 86.6, 84.3, 78.6, 98.5, 86.9, 72.5, 90.9, 80.5, 82.9, 71.6, 91, 85.8, 79.9 (2×), 71.7, 74.3, 67.9, 78.3, 72% | 78.1, 73.2, 91, 91.1, 74.6, 74.7, 67.2, 80.4, 75.8 (2×), 70.8, 76, 76.4, 81, 88.5, 77.4, 75.5, 76.2, 65.4, 85.6, 63.9, 75.2, 69.4% | –
2 | NC1CC1c1ccc(-c2cccc(O)c2)cc1 (stereo not drawn) | – | 103, 86.6, 83.4, 77.2, 71.1, 99.6, 77.4, 85.6, 80.1, 84.5, 101, 97.3, 75.7, 88.6, 104, 98.2, 76, 99.9 (2×), 118, 87.6, 90.7, 92.1, 97.7, 93.6% | 108, 81.4, 74.2, 73.2, 76, 87.7, 91.8, 69.5, 78.9, 82.8, 94.8, 96.2, 69.3, 72.3, 99.1, 93.1, 64.3, 105, 112, 75.6, 73.4, 91.4, 104, 111, 78.1% | 113, 109 (2×), 80, 79, 78.9, 106 (3×), 97.2, 74.5, 66.6, 72, 103, 62.6, 67.5, 100, 77.8, 95.7 (2×), 115, 71.7, 68, 102, 67.8% | 105, 87, 86.7, 78.7, 88.9, 91.7, 85.6, 76.8, 89.9, 89.2, 114, 93.5, 82.4, 69.2, 98.1, 78.4, 100, 101, 91.5, 85.2, 96.6, 92.1, 102, 78.5%

From PubChem BioAssay AID1918949 (Molecular Pharmacology Branch, DTP, NCI, 2023)
